pIC50: −log10 of the molar value. A lower IC50 marks a more sensitive line; a limit (>, <) means that the fit lies beyond the doses tested. The AUC spans the tested range (256-fold, ending at the top dose) of the same fit; it is 1 without any effect and falls as sensitivity rises. The top dose, if marked as inferred, is not printed in the source and was worked back from the curve model.
The cell lines below were run with O=C1NC(=O)/C(=C\c2ccc3nccnc3c2)S1 [AS605240] (assay: Viability of human cancer cell lines after 72 h of drug (GDSC screen)). Details: top dose inferred.
Method: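 Human cancer cell lines in 384-well plates, medium with 10% serum, drug for 72 h over a 256-fold dose range (nine 2-fold or five 4-fold steps up to the top dose). Adherent lines were fixed and stained with the nucleic acid dye Syto60, suspension lines read with resazurin; signal relative to control wells, capped at 0 and 100%. One two-parameter sigmoid per drug and line, fitted in a mixed model over all curves with the slope shared within a line.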
For “GT3TKB (stomach, adherent, top dose 20 µM)”, the AUC was 0.99 and the pIC50 was < 4.70.
With “AsPC-1 (pancreas, adherent, top dose 20 µM)” the AUC was 0.8 and the pIC50 was 4.71.
With “MDA-MB-436 (breast, adherent, top dose 20 µM)” the AUC was 0.963 and the pIC50 was < 4.70.
In the case of “Hs746T (stomach, adherent, top dose 20 µM)”, the AUC was 0.944 and the pIC50 was < 4.70.
In the case of “HSC-2 (head and neck, adherent, top dose 20 µM)”, the AUC was 0.891 and the pIC50 was < 4.70.
In the case of “SK-CO-1 (large intestine, adherent, top dose 20 µM)”, the AUC was 0.989 and the pIC50 was < 4.70.
With “ROS-50 (B-cell leukaemia, suspension, top dose 20 µM)” the AUC was 0.931 and the pIC50 was < 4.70.
With “HCC-78 (lung adenocarcinoma, adherent, top dose 20 µM)” the AUC was 0.902 and the pIC50 was < 4.70.
For “ES4 (Ewing sarcoma, adherent, top dose 20 µM)”, the AUC was 0.839 and the pIC50 was 4.78.
“DoTc2-4510 (cervix, adherent, top dose 20 µM)” was tested, and the AUC was 0.875 and the pIC50 was 4.75.
In the case of “MV-4-11 (leukaemia, suspension, top dose 20 µM)”, the AUC was 0.773 and the pIC50 was 5.19.
“HCC2998 (large intestine, adherent, top dose 20 µM)” was tested, and the AUC was 0.987 and the pIC50 was < 4.70.
In the case of “NCI-H2170 (lung squamous cell carcinoma, adherent, top dose 20 µM)”, the AUC was 0.931 and the pIC50 was < 4.70.
With “MFE-319 (endometrium, adherent, top dose 20 µM)” the AUC was 0.838 and the pIC50 was 4.89.
“MC-IXC (neuroblastoma, adherent, top dose 20 µM)” was tested, and the AUC was 0.944 and the pIC50 was < 4.70.
“HuP-T3 (pancreas, adherent, top dose 20 µM)” was tested, and the AUC was 0.869 and the pIC50 was < 4.70.
With “OSC-19 (head and neck, adherent, top dose 20 µM)” the AUC was 0.72 and the pIC50 was 5.27.
In the case of “HT55 (large intestine, adherent, top dose 20 µM)”, the AUC was 0.967 and the pIC50 was < 4.70.
In the case of “HPAC (pancreas, adherent, top dose 20 µM)”, the AUC was 0.822 and the pIC50 was 4.73.
SiHa (cervix, adherent, top dose 20 µM) was tested, and the AUC was 0.987 and the pIC50 was < 4.70.
“no-10 (glioma, adherent, top dose 20 µM)” was tested, and the AUC was 0.91 and the pIC50 was < 4.70.
“KARPAS-299 (anaplastic large cell lymphoma, suspension, top dose 20 µM)” showed an AUC of 0.906 and a pIC50 of 4.72.
“NALM-6 (B-cell leukaemia, suspension, top dose 20 µM)” gave an AUC of 0.608 and a pIC50 of 5.63.
Cell Line “NCI-H2444 (non-small cell lung carcinoma, adherent, top dose 20 µM)” has an AUC of 0.737 and a pIC50 of 5.18.
“LB771-HNC (head and neck, adherent, top dose 20 µM)” showed an AUC of 0.819 and a pIC50 of 4.82.
Work on “SK-LU-1 (lung adenocarcinoma, adherent, top dose 20 µM)” yielded an AUC of 0.814 and a pIC50 of 4.83.
“NCI-H1304 (small cell lung carcinoma, suspension, top dose 20 µM)” gave an AUC of 0.456 and a pIC50 of 6.03.
For “EB-3 (Burkitt lymphoma, suspension, top dose 20 µM)”, the AUC was 0.866 and the pIC50 was < 4.70.
In the case of “NCI-H69 (small cell lung carcinoma, suspension, top dose 20 µM)”, the AUC was 0.922 and the pIC50 was < 4.70.
For “TE-11 (oesophagus, adherent, top dose 20 µM)”, the AUC was 0.979 and the pIC50 was < 4.70.
Cell Line “COR-L23 (large cell lung carcinoma, adherent, top dose 20 µM)” has an AUC of 0.826 and a pIC50 of 4.93.
In the case of “KP-1N (pancreas, adherent, top dose 10.24 µM)”, the AUC was 0.833 and the pIC50 was 5.15.
“SKN-3 (head and neck, adherent, top dose 20 µM)” was tested, and the AUC was 0.865 and the pIC50 was < 4.70.
Cell Line “CAL-12T (non-small cell lung carcinoma, adherent, top dose 20 µM)” has an AUC of 0.591 and a pIC50 of 5.64.
With “RPMI-7951 (melanoma, adherent, top dose 20 µM)” the AUC was 0.791 and the pIC50 was 5.06.
Work on “DOK (head and neck, adherent, top dose 20 µM)” yielded an AUC of 0.685 and a pIC50 of 5.27.
In the case of “SIG-M5 (acute myeloid leukaemia, suspension, top dose 20 µM)”, the AUC was 0.014 and the pIC50 was > 7.11.
With “42-MG-BA (glioma, adherent, top dose 20 µM)” the AUC was 0.95 and the pIC50 was < 4.70.
In the case of “HCC1428 (breast, adherent, top dose 20 µM)”, the AUC was 0.95 and the pIC50 was < 4.70.
With “BHY (head and neck, adherent, top dose 20 µM)” the AUC was 0.716 and the pIC50 was 5.29.
For “DEL (lymphoid neoplasm, suspension, top dose 20 µM)”, the AUC was 0.912 and the pIC50 was 4.74.
For “ALL-SIL (T-cell leukaemia, suspension, top dose 20 µM)”, the AUC was 0.634 and the pIC50 was 5.56.
In the case of “NCI-H2196 (small cell lung carcinoma, adherent, top dose 20 µM)”, the AUC was 0.963 and the pIC50 was < 4.70.
“MOLT-4 (lymphoblastic leukaemia, suspension, top dose 20 µM)” gave an AUC of 0.575 and a pIC50 of 5.71.
Cell Line “EW-1 (Ewing sarcoma, semi-adherent, top dose 20 µM)” has an AUC of 0.674 and a pIC50 of 5.44.
For “Hs683 (glioma, adherent, top dose 20 µM)”, the AUC was 0.927 and the pIC50 was < 4.70.
In the case of “KP-4 (pancreas, adherent, top dose 20 µM)”, the AUC was 0.659 and the pIC50 was 5.47.
“TALL-1 (T-cell lymphoblastic leukaemia, suspension, top dose 20 µM)” was tested, and the AUC was 0.964 and the pIC50 was < 4.70.
In the case of “MEG-01 (chronic myeloid leukaemia, suspension, top dose 20 µM)”, the AUC was 0.445 and the pIC50 was 6.05.
“KYSE-270 (oesophagus, adherent, top dose 20 µM)” was tested, and the AUC was 0.964 and the pIC50 was < 4.70.
In the case of “SH-4 (melanoma, adherent, top dose 20 µM)”, the AUC was 0.384 and the pIC50 was 6.30.
In the case of “PANC-03-27 (pancreas, adherent, top dose 20 µM)”, the AUC was 0.793 and the pIC50 was 5.07.
Cell Line “SCC-15 (head and neck, adherent, top dose 20 µM)” has an AUC of 0.656 and a pIC50 of 5.41.
Work on “SNU-407 (large intestine, adherent, top dose 20 µM)” yielded an AUC of 0.667 and a pIC50 of 5.40.
In the case of “NCI-H2291 (lung adenocarcinoma, adherent, top dose 20 µM)”, the AUC was 0.984 and the pIC50 was < 4.70.
“NCI-H446 (small cell lung carcinoma, semi-adherent, top dose 20 µM)” was tested, and the AUC was 0.983 and the pIC50 was < 4.70.
“TOV-112D (ovary, adherent, top dose 20 µM)” gave an AUC of 0.764 and a pIC50 of 5.14.
For “786-0 (kidney, adherent, top dose 20 µM)”, the AUC was 0.752 and the pIC50 was 5.21.
Work on “VAL (B-cell lymphoma, suspension, top dose 20 µM)” yielded an AUC of 0.871 and a pIC50 of 4.72.
